Measurements taken from PMC3900716.
No constants are given. Whether binding was seen depends on the method and setting. Binding seen in cells or lysates may run through a third protein. Some results given as binding are weak or reduced against the parent protein; the word gives no strength. For part of these data: Where a sequence is shown, tags or fusion partners need not be part of it.

Amino acid sequences for entries named in this document (tags omitted). A change or cut given only in a name is not applied to a line headed by its entry. Chains listed by the source or under a name are the forms on record and can include a tag or linker. Residues count along the entry.
RET51 (wild type) (P07949, residues 29-1114): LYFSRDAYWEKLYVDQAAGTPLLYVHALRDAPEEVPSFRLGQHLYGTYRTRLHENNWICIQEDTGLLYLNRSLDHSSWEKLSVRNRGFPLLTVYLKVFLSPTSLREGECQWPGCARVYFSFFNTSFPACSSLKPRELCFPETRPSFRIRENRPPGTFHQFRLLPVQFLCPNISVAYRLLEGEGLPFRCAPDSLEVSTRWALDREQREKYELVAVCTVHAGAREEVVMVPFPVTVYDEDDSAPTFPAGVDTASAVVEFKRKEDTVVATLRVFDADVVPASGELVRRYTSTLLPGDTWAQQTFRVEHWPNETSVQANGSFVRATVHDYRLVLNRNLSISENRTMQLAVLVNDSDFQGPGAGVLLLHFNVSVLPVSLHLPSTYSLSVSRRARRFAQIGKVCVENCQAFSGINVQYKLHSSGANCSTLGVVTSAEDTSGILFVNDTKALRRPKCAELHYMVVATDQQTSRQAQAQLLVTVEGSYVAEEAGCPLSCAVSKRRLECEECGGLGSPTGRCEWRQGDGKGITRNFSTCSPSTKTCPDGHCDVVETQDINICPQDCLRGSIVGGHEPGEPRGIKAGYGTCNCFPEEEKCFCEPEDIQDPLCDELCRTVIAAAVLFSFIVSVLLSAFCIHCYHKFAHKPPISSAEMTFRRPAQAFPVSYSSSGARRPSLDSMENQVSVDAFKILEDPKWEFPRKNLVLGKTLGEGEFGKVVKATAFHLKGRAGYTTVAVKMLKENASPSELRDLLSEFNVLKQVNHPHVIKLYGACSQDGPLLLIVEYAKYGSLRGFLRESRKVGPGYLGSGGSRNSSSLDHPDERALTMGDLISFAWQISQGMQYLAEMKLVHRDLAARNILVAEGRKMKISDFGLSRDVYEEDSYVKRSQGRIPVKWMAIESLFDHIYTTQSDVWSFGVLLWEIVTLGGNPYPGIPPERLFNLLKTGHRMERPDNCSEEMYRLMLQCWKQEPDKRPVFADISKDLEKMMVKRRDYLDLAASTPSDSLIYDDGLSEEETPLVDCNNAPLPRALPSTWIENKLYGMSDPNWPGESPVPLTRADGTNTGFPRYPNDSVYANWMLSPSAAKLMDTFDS
RET9MEN2A (C634R) (P07949-2, form named): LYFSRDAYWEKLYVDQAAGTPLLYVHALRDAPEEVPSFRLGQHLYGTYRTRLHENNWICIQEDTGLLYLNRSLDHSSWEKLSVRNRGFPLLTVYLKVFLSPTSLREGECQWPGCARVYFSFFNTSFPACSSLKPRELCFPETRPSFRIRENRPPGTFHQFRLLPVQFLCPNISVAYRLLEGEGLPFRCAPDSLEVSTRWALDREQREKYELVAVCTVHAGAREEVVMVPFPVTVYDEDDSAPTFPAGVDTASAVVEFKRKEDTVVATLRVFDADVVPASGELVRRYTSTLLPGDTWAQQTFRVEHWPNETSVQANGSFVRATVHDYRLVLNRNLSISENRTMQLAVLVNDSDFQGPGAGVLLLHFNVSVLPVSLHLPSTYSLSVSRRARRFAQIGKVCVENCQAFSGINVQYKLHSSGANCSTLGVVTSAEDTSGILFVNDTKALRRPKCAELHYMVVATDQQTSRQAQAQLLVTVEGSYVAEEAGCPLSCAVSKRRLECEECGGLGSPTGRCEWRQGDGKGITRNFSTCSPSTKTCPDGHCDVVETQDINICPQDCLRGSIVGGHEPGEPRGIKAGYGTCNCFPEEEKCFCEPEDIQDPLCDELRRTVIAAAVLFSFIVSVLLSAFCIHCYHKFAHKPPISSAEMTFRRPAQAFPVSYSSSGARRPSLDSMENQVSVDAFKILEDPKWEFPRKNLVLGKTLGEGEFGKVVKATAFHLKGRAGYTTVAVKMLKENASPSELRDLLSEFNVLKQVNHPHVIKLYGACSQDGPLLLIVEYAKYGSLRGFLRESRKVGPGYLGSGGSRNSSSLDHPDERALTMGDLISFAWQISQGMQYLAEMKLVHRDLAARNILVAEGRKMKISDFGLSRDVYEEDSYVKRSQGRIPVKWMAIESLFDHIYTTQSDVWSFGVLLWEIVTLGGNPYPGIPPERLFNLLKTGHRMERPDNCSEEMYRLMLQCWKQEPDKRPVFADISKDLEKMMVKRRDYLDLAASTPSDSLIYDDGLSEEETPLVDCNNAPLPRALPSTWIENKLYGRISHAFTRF
RET9MEN2A Y1062F (P07949-2, form named): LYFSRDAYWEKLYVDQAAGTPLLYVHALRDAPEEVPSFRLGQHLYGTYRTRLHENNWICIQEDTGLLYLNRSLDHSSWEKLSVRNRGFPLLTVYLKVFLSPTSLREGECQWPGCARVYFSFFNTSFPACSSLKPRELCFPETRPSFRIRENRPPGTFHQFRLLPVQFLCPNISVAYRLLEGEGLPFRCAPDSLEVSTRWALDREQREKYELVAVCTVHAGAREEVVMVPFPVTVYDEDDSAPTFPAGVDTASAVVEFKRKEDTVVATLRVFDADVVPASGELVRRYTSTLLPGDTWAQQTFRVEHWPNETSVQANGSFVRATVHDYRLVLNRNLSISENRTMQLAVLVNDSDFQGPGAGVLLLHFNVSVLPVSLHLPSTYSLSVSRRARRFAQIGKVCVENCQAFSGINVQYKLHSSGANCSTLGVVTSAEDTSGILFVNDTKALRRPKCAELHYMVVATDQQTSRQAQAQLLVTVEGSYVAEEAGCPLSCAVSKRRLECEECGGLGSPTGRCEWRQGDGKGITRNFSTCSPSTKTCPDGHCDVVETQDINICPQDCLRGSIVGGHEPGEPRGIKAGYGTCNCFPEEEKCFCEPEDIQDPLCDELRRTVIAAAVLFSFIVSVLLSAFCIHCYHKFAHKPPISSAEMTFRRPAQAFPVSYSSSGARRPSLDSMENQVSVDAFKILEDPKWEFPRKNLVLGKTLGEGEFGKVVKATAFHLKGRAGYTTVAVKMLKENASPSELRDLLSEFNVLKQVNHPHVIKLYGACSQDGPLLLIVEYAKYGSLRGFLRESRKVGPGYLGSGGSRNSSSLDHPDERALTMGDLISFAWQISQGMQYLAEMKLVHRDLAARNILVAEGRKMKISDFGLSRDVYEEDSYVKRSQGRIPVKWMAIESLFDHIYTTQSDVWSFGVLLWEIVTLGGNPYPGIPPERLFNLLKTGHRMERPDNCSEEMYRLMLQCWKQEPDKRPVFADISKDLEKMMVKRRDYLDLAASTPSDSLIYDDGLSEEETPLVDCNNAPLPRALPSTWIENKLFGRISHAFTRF
RET9MEN2A Y1015* (P07949-2, form named): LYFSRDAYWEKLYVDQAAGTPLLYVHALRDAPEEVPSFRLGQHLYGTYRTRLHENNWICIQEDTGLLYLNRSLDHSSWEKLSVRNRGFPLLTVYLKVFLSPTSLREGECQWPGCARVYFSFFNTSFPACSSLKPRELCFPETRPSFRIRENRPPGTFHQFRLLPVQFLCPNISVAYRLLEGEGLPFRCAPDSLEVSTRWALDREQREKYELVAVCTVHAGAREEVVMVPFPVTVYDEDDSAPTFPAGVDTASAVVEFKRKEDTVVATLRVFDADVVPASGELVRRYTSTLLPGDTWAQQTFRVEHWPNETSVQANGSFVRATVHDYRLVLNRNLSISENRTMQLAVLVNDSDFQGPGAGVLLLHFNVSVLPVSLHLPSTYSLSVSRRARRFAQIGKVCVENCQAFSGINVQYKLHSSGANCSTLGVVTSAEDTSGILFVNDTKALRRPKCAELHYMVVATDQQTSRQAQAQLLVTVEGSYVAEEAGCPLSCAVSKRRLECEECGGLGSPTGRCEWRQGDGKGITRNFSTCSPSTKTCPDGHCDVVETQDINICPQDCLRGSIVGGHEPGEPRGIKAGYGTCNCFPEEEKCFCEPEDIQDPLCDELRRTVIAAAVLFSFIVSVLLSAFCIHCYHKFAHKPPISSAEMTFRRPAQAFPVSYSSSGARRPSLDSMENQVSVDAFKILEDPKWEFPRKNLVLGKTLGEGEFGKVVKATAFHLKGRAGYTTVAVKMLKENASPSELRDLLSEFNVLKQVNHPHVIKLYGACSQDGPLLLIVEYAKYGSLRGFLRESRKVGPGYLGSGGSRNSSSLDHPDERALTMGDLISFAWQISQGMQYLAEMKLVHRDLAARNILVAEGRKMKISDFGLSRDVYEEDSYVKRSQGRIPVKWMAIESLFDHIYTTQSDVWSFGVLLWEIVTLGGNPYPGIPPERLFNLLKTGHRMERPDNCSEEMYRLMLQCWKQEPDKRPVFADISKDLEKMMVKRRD
RET9MEN2A Y900* (P07949-2, form named): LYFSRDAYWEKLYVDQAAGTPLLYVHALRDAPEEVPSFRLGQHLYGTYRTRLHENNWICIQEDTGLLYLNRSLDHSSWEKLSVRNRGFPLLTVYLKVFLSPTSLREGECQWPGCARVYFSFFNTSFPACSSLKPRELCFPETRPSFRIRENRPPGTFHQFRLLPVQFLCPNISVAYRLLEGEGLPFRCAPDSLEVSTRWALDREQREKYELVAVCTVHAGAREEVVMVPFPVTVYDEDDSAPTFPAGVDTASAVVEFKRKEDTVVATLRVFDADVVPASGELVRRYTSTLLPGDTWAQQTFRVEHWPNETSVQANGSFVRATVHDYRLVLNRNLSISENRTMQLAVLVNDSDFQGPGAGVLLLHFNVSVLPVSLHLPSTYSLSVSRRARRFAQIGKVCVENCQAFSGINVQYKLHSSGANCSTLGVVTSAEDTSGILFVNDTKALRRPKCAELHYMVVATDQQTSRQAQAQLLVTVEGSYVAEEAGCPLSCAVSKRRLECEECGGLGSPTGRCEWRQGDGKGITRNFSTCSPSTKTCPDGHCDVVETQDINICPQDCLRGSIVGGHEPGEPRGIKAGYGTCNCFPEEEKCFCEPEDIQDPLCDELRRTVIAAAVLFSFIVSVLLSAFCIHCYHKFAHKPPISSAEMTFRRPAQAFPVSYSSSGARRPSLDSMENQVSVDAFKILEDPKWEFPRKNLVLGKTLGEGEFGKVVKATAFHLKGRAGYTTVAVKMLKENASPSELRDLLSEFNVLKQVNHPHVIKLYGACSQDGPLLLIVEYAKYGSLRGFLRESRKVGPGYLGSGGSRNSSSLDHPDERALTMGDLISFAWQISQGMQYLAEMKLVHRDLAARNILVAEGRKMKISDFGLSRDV
RET51MEN2A (C634R) (P07949, form named): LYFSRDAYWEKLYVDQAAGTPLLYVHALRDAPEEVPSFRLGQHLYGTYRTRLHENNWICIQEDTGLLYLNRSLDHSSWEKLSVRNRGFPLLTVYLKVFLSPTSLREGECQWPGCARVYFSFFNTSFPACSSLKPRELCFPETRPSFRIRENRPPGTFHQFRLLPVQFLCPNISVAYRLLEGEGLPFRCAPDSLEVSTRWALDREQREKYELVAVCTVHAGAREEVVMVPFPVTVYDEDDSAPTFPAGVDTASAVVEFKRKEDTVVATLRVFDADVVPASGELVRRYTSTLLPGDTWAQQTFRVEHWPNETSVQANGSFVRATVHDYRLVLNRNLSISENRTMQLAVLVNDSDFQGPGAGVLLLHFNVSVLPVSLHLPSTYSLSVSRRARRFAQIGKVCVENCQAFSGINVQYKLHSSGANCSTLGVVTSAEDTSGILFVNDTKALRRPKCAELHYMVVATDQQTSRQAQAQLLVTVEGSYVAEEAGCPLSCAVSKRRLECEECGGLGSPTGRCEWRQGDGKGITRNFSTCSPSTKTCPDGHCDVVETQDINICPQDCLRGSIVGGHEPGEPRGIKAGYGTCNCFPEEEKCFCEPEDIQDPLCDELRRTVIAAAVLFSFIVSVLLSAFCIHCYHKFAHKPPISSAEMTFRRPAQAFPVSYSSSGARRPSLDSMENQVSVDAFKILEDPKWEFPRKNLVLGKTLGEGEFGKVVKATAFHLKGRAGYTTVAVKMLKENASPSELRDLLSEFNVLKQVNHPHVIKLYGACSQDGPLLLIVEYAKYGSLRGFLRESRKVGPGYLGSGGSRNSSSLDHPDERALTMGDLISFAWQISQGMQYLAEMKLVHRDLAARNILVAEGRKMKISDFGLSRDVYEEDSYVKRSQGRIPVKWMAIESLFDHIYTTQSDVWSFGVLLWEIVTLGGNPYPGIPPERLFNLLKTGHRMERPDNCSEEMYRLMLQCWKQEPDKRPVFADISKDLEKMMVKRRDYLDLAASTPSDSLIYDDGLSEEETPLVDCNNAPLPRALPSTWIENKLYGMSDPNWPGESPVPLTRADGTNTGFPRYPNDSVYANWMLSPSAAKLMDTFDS

Tests used:
[1] = biological target: T1, GST-tagged human Cbl-c (human) (UniProt Q9ULV8); assay: pull-down; GST pull-down on Glutathione Sepharose 4B from 300 µg whole cell lysate of co-transfected HEK293T cells, overnight at 4°C, five washes in lysis buffer (10 mM Tris-HCl pH 7.5, 150 mM NaCl, 5 mM EDTA, 1% Triton X-100), immunoblot; in Figure 2B cells with 500 µM Sorafenib or DMSO for 90 min before lysis
T1 sequence: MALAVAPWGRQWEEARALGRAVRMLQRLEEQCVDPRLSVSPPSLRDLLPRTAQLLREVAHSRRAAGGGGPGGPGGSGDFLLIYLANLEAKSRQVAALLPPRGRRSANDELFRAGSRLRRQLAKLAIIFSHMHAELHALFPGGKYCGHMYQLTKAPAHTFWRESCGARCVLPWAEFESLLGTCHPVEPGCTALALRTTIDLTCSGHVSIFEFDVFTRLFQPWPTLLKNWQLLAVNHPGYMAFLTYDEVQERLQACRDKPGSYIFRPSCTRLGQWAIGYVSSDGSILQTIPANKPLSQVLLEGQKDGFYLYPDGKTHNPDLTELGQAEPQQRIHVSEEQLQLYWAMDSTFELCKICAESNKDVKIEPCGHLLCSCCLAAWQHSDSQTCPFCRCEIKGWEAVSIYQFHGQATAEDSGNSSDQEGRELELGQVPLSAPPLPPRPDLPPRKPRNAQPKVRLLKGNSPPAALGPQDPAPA

[2] = biological target: RET9MEN2A (C634R) (human) (UniProt P07949); assay: co-IP; rabbit anti-RET with Protein A/G Plus-agarose, 300 µg whole cell lysate of co-transfected HEK293T cells, immunoblot; in Figure 4A cells with 20 nM MG-132 for 5 h before collection
RET9MEN2A Y1062F (human) = RET9MEN2A Y1062F (human) (UniProt P07949); assay: as above
RET9MEN2A Y1015* (human) = RET9MEN2A Y1015* (human) (UniProt P07949); assay: as above
RET9MEN2A Y900* (human) = RET9MEN2A Y900* (human) (UniProt P07949); assay: as above
[3] = biological target: T2, endogenous Cbl-c (human (endogenous in CFPac-1)) (UniProt Q9ULV8); assay: co-IP; endogenous proteins; agarose-immobilised rabbit anti-Cbl-c, 20 mg CFPac-1 whole cell lysate (30 mg MB-231 and T47D as controls), immunoblot for Enigma
T2 sequence: T1 sequence

HA-tagged Cbl (human) = HA-tagged Cbl (human) (UniProt P22681); assay: co-IP; anti-HA affinity matrix, 300 µg whole cell lysate of co-transfected HEK293T cells, immunoblot for Enigma
HA-tagged Cbl-c (human) = biological target: T3, HA-tagged Cbl-c (human) (UniProt Q9ULV8); assay: as above
T3 sequence: T1 sequence

HA-tagged Cbl-b (human) = HA-tagged Cbl-b (human) (UniProt Q13191); assay: as above

RET51 (wild type) (from UniProt P07949-1 29-1114) (receptor)
binding [1]: binds

GFP-tagged Enigma (from UniProt Q9NR12 1-457)
binding [2]: binds
binding (RET9MEN2A Y1062F (human)): no binding
binding (RET9MEN2A Y1015* (human)): no binding
binding (RET9MEN2A Y900* (human)): no binding

RET51MEN2A (C634R) (from UniProt P07949 29-1114) (receptor)
binding [1]: binds

RET9 (wild type) (from UniProt P07949-2 29-1072) (receptor)
binding [1]: binds

RET9MEN2A Y1015* (from UniProt P07949-2 29-1014) (domain or fragment)
binding [1]: binds

RET9MEN2A (C634R) (from UniProt P07949-2 29-1072) (receptor)
binding [1]: binds

RET9MEN2A Y900* (from UniProt P07949-2 29-899) (domain or fragment)
binding [1]: binds

endogenous Enigma (from UniProt Q9NR12 1-457)
binding [3]: binds

RET9MEN2A Y1062F (from UniProt P07949-2 29-1072) (receptor)
binding [1]: binds

FLAG-tagged Enigma (from UniProt Q9NR12 1-457)
binding [2]: binds
binding (HA-tagged Cbl (human)): no binding
binding (HA-tagged Cbl-c (human)): binds
binding (HA-tagged Cbl-b (human)): no binding
binding [1]: binds

untagged human Enigma (from UniProt Q9NR12 1-457)
binding [1]: binds
